The whole screen tested about 45,000 compounds, of which about 200 (0.44%) were called active. Not shown: some 7% with an inconclusive outcome. Calls follow the shape of the dose curve; as a rule, active = well fitted activation curve with a large enough effect; inconclusive = small, poorly fitted or top-dose-only effect; inactive = no such curve, though single readings can be large or run the other way. Some of the results follow.
Assay: qHTS of TDP-43 Inhibitors: NCGC Sytravon Library Screen; also: nearly all actives have a fitted effect of over 55% in size; as to growth rescue (activation): 0% is about no effect
Details: yeast TDP-43 toxicity rescue, BacTiter-Glo growth, 24 h; series mostly up to 46.1 µM; growth rescue (activation): at the top concentration
Outline: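 TDP-43-expressing yeast, pregrown in raffinose, seeded at OD600 0.02 in galactose medium with compound for 24 hr at 30 deg C. Growth read by BacTiter-Glo luminescence, so rescue of toxicity appears as activation.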
Potency is read from the fitted curve at half-maximal effect.

SMILES | growth rescue (activation) | Potency
CN1CCN(c2nc3ccccn3c(=O)c2/C=C(\C#N)S(=O)(=O)c2ccc(Cl)cc2)CC1 | inactive: -2.84% | 
O=C(COC(=O)c1ccc(O)cc1)Nc1ccc2c(c1)OCCO2 | inactive: -14.1% | 
O=C(N/N=C/c1ccco1)c1cc(=O)[nH]c2ccccc12 | inactive: 5.72% | 
CN1C=CC=C/C1=C1\SC(=S)N(CC(=O)O)C1=O | inactive: 4.97% | 
Cc1ccc(S(=O)(=O)N2CCN(C(=O)C3CCCC3)CC2)cc1C | inactive: 23.1% | 
COc1cc(OC)cc(C(=O)Nc2ccc(C(=O)Nc3ccccc3OC)cc2)c1 | inactive: -2.9% | 
CC1CCN(S(=O)(=O)c2ccc3[nH]c(=O)[nH]c3c2)CC1 | inactive: 11.3% | 
COc1ccc(NC(=O)c2cc(=O)[nH]c(=O)[nH]2)cc1S(=O)(=O)Nc1ccccc1Cl | inactive: 15.6% | 
C=CCOC(=O)c1c(C)nc2cc3c(cc2c1C)OCO3 | inactive: 10.4% | 
O=C(CN1C(=O)C(=O)N(Cc2ccccc2)C1=O)Nc1cc(Cl)cc(Cl)c1 | inactive: -17.6% | 
COc1ccc(C(N)=S)c(OC)c1 | inactive: 3.02% | 
O=Cc1cn(CC(=O)N2CCCCC2)c2ccccc12 | inactive: 15.1% | 
O=C(COC(=O)c1cccnc1Cl)NCc1cccs1 | inactive: -7.13% | 
Cc1ccccc1/C=N/Nc1nc2ccccc2[nH]1 | inactive: -0.552% | 
Cc1cc(C)c(NC(=O)COC(=O)C23CC4CC(CC(O)(C4)C2)C3)c(Cl)c1 | inactive: 9.67% | 
Cn1c(=O)n(C)c2cc(NS(=O)(=O)c3ccc(Cl)s3)ccc21 | inactive: -12.5% | 
COc1ccc(F)cc1-c1cc(C(=O)N2CCc3ccccc3C2)[nH]n1 | inactive: 16% | 
CCc1ccc(NC(=O)CCNC(=O)Cn2ccc3ccccc3c2=O)cc1 | inactive: 7.88% | 
Cc1ccccc1NC(=O)Cn1cc(C(=O)C2CC2)c2ccccc21 | inactive: 1.89% | 
O=C(CC(c1ccccc1)c1cc(Cl)ccc1O)N1CCCC1 (stereo unspecified) | inactive: -16.9% | 
O=C1CCCC2=C1C(c1ccncc1)c1c(nc(SCc3ccccc3)[nH]c1=O)N2 (stereo unspecified) | inactive: -6.48% | 
O=C(Cc1ccccc1[N+](=O)[O-])Nc1ccc2c(c1)OCCO2 | inactive: 10.2% | 

SMILES | growth rescue (activation) | Potency
O=C(c1ccco1)N1CCN(C(=O)c2ccc(COc3ccc(F)cc3)o2)CC1 | inactive: 10.4% | 
CC(C)C(NS(=O)(=O)c1cccc(C(F)(F)F)c1)C(=O)N1CCc2ccccc2C1 (stereo unspecified) | inactive: 28.1% | 
Cc1noc(C)c1S(=O)(=O)NC(=O)C1(C)CCN1C(=O)C1(c2ccc(Cl)cc2)CC1 (stereo unspecified) | inactive: -4.28% | 
CC(=O)c1ccc(NC(=S)NCc2cccnc2)cc1 | inactive: 2.8% | 
CCc1cc2c(CN(C)Cc3ccccc3F)cc(=O)oc2cc1O | inactive: 9.08% | 
COc1c(Cl)cc(Cl)cc1CNc1ccc(S(N)(=O)=O)cc1 | inactive: 3.82% | 
COc1cccc(NC(=O)Nc2nnc(N3C(C)CCCC3C)s2)c1 (stereo unspecified) | inactive: 3.32% | 
CC(=O)Nc1ccc(NC(=O)c2c(C)nn(Cc3ccccc3)c2Cl)cc1 | inactive: 11.8% | 
Cn1c(N)c(C(=O)COC(=O)C2CC(O)CN2S(=O)(=O)c2ccc(Cl)cc2)c(=O)n(C)c1=O (stereo unspecified) | inactive: -5.01% | 
Cc1cc2c(ccc3c2no[n+]3[O-])nn1 | inactive: 3.27% | 
COc1ccc(CC(N)c2csc(NC(=O)Nc3ccccc3C(C)C)n2)cc1 (stereo unspecified) | inactive: -1.23% | 
C=CCn1cc(C(=O)c2cc(Br)ccc2O)cc(C#N)c1=O | inactive: 25% | 
COc1cc(OC)cc(C(=O)N[C@H](C(=O)NCc2ccc(F)cc2)C(C)C)c1 | inactive: -6.52% | 
CC1(C(=O)NS(=O)(=O)c2cccc(Cl)c2)CCN1C(=O)C1CCCCC1 (stereo unspecified) | inactive: 14.1% | 
CCc1nc(C)cn1S(=O)(=O)c1ccc2c(c1)OCCO2 | inactive: -3.34% | 
CC(C(=O)O)N(C(=O)c1ccccc1)c1ccc(F)cc1 (stereo unspecified) | inactive: -1.54% | 
O=C(Nc1ccc(S(=O)(=O)NCC2CCCO2)cc1)C1CC(=O)N(c2ccccc2)C1 (stereo unspecified) | inactive: 15.8% | 
CC(=O)N1CCCN(Cc2cn(-c3ccc(C)cc3)nc2-c2ccc(F)cc2)CC1 | inactive: 8.37% | 
Cc1ccsc1C(=O)OCC(=O)Nc1cccc(S(=O)(=O)NC2=NCCCCC2)c1 | inactive: 11.2% | 
CN1CCC(N(C)S(=O)(=O)c2ccc(F)cc2F)CC1 | inactive: -2.61% | 
O=C(CCC(=O)Nc1ccc(Br)cc1)N/N=C/c1ccccc1O | inactive: 7.58% | 
Cc1ccccc1COc1ccc2oc(C)c(C(=O)O)c2c1 | inactive: 5.5% | 

SMILES | growth rescue (activation) | Potency
Cc1cc(C)cc(NC(=O)C2C3C=CC(O3)C2C(=O)O)c1 (stereo unspecified) | inactive: 6.35% | 
CCc1nc2c(OCC(=O)N(C)C)cccn2c1N(C=O)Cc1ccc(OC)cc1 | inactive: 6.76% | 
CCC(CC)c1nnc(NC(=O)CS(=O)(=O)c2ccccc2)s1 | inactive: -3.88% | 
O=C(Nc1cccc(C(F)(F)F)c1)Nc1ccc2[nH]c(=O)[nH]c2c1 | inactive: 7.42% | 
O=C(O)CS(=O)CC(=O)Nc1cccc(C(F)(F)F)c1 (stereo unspecified) | inactive: -9.45% | 
CCOc1ccc(OCC)c(NC(=O)c2ccc(CNc3c(N4CCCC4)c(=O)c3=O)cc2)c1 | inactive: -6.61% | 
Cc1ccccc1-c1cc2nc(NCc3ccc4occc4c3)n(C)c(=O)c2s1 | inactive: 25.9% | 
CCOC(=O)N1CCN(C(=O)COC(=O)c2cc(C)ccc2C)CC1 | inactive: 12.9% | 
Cc1ccc(NC(=O)COc2ccc(-c3nnco3)cc2)cc1S(=O)(=O)N1CCOCC1 | inactive: 16.5% | 
Cc1ccc(CN2CCN(C(=O)c3cccc4ccccc34)CC2)cc1 | inactive: -4.12% | 
Cc1cc(OCC(=O)NC(C)(C)C)ccc1Cl | inactive: 35.6% | 
COc1cc([C@@H]2[C@H]3CN(C)CC=C3C(C#N)=C(N)C2(C#N)C#N)cc2c1OCO2 | inactive: -24.1% | 
O=C(NCc1ccccc1)c1cc(C2CCCN(S(=O)(=O)c3cccs3)C2)on1 (stereo unspecified) | inactive: 4.34% | 
CCN1CCN(Cc2cc(=O)oc3ccc(C)cc23)CC1 | inactive: -7.21% | 
CCC(c1nnc(SCC(=O)NC23CC4CC(CC(C4)C2)C3)o1)N(C)C (stereo unspecified) | inactive: 1.78% | 
COc1ccc(C2CC(c3ccccc3)=NN2C(=O)CSc2nnnn2-c2cccc(C)c2)cc1 (stereo unspecified) | inactive: 6.16% | 
Cc1c(N2C(=O)CSC2c2ccc([N+](=O)[O-])cc2)c(=O)n(-c2ccccc2)n1C (stereo unspecified) | inactive: -3.83% | 
Cc1nn(CC(=O)NC2CCS(=O)(=O)C2)c(C)c1[N+](=O)[O-] (stereo unspecified) | inactive: -3.03% | 
Cc1cc(N2C(=O)CC(N3CCN(C(c4ccccc4)c4ccccc4)CC3)C2=O)no1 (stereo unspecified) | inactive: 17.9% | 
COC(=O)C(=Nc1ccccc1)/C(C(=O)C(=O)N(C)c1ccccc1)=C(\O)c1ccccc1 | inactive: -2.23% | 
O=C(NCc1ccccc1Cl)[C@@H]1CCCN1S(=O)(=O)c1ccc(Cl)cc1 | inactive: 21.5% | 
O=C(COC(=O)c1ccc2c(c1)OCO2)Nc1nc(-c2ccccc2)cs1 | inactive: -9.12% | 

SMILES | growth rescue (activation) | Potency
CCOC(=O)N1CCN(CC(O)c2c[nH]c3ccc(OC)cc23)CC1 (stereo unspecified) | inactive: -3.53% | 
Cc1ccc(OCC(O)CNCc2ccc(F)cc2)cc1 (stereo unspecified) | inactive: 4.32% | 
CN1CCN(S(=O)(=O)c2ccc(N3CCN(C(=O)c4ccccc4)CC3)nc2)CC1 | inactive: 17.9% | 
Cc1cccc(NC(=O)CSc2nnnn2C2CCCC2)c1 | inactive: 1.12% | 
O=C(COC(=O)C1CC1)NCCc1ccccc1 | inactive: 18.7% | 
CN(C)c1ccc(P(=O)(Nc2ccc([N+](=O)[O-])cc2)N2CCOCC2)c(NC(=O)c2cccs2)c1 (stereo unspecified) | inactive: 5.3% | 
COc1ccccc1NC(=O)c1ccc2nsnc2c1 | inactive: 30.7% | 
C=CCN(Cc1nc(-c2ccccc2)no1)C(=O)c1ccc2c(c1)OCO2 | inactive: 34.7% | 
O=C(Cc1ccccc1)NCC(=O)N1CCc2ccccc2C1 | inactive: 1.24% | 
S=c1[nH]nc(-c2ccc3ccccc3n2)n1-c1ccccc1Cl | inactive: 5.24% | 
COc1cc(/C=C2/SC(=S)N(c3c(C)n(C)n(-c4ccccc4)c3=O)C2=O)ccc1O | inactive: -10.2% | 
Cc1cc(NC(=O)CN2C(=O)NC3(CCCCC3)C2=O)no1 | inactive: 6.36% | 
C/C(=N/NC(=O)c1cccs1)c1ccco1 | inactive: 6% | 
COC(=O)c1ccccc1OS(=O)(=O)N(C)C | inactive: 1.57% | 
COc1ccccc1NC(=O)N(CCN(C)C)Cc1cc2cc(C)ccc2[nH]c1=O | inactive: 13.7% | 
CN(C)S(=O)(=O)N(CC(=O)N1CCC(Cc2ccccc2)CC1)c1ccccc1 | inactive: 16.1% | 
COc1cc(CCC(=O)OCC(=O)Nc2ccc(C)cc2Br)cc(OC)c1OC | inactive: 7% | 
Cc1nnc(SCC(=O)c2c(N)n(C3CC3)c(=O)[nH]c2=O)n1C | inactive: -3.54% | 
Cc1cccc(OCC(=O)Nc2ccc(NC(=O)c3ccco3)c(C)c2)c1 | inactive: 25.6% | 
CCCS(=O)(=O)Nc1cc(-c2cn3ccc(C)cc3n2)ccc1C | inactive: 13% | 
COc1ccccc1OCC(=O)OCC(=O)NC1CCCCC1 | inactive: -1.15% | 
c1ccc(-c2nc(N3CCOCC3)sc2-c2ccccc2)cc1 |  | active: 25.1 µM

SMILES | growth rescue (activation) | Potency
COC(c1ccccc1)c1nnc(CCC(=O)NCc2cccc(-n3cccn3)c2)o1 (stereo unspecified) | inactive: 3.29% | 
Cc1cc(C)cc(C(=O)NC(=S)Nc2ccc(Cc3ccncc3)cc2)c1 | inactive: 10.1% | 
COC(=O)C1=CN(Cc2ccc(OC)cc2)C=C(C(=O)OC)C1c1cc(OC)c(OC)c(OC)c1 | inactive: 3.1% | 
O=C(OCC(=O)c1ccccc1Cl)C1=NN(c2ccccc2)C(=O)CC1 | inactive: 7.7% | 
O=[N+]([O-])c1c(NCCCO)cc(N2CCN(Cc3ccc4c(c3)OCO4)CC2)c2nonc12 | inactive: 19.1% | 
Cc1ccc(CNC(=O)C2CCN(C(=O)Nc3ccc(C)cc3)CC2)cc1 | inactive: -7.5% | 
C/C(=N\NC(=O)c1ccccc1O)C1CC1 | inactive: 7.2% | 
O=C(OCC(=O)N1CCc2ccccc21)c1cc(S(=O)(=O)N2CCOCC2)ccc1F | inactive: 19.9% | 
CCCc1ccc(OCc2ccc(C(=O)N3CCCC3)o2)cc1 | inactive: -16.1% | 
S=c1[nH]nc(-c2cc(-c3ccsc3)n[nH]2)n1-c1cccc2ccccc12 | inactive: -7.63% | 
CCc1nnc(NC(=O)C2CCN(C(=O)NC3CCCCC3)CC2)s1 | inactive: 19.8% | 
O=[N+]([O-])c1ccc(O)c(/C=N/NC2=NS(=O)(=O)c3ccccc32)c1 | inactive: 9.4% | 
Cc1ccc(C)c(SCC(=O)Nc2ccc(S(=O)(=O)Nc3ncccn3)cc2)c1 | inactive: 22.5% | 
COc1ccccc1C(=O)CN1C(=O)NC2(CCCc3ccccc32)C1=O (stereo unspecified) | inactive: -6.18% | 
CCCC(C)c1nnc(NC(=O)C(=O)OCC)s1 (stereo unspecified) | inactive: -2.6% | 
Cc1ccc(NC(=O)Cc2c(O)c3ccccc3[nH]c2=O)c(C)c1 | inactive: 2.49% | 
COc1cc(/C=N/NC(=O)CN2CCCCC2)ccc1OCc1ccccc1 | inactive: 10.5% | 
CCN(CC)S(=O)(=O)c1ccc(Cl)c(NC(=O)c2cc(Cl)ccc2Cl)c1 | inactive: -2.15% | 

— PubChem BioAssay AID1347073 (National Center for Advancing Translational Sciences (NCATS), 2019)
